Source: US20210130473A1, “TGFßR1 INHIBITOR-ASGR ANTIBODY CONJUGATES AND USES THEREOF” (Silverback Therapeutics, Inc., priority 2019, published 2021)

T1: HepG2 cells (which express ASGR1) (Homo sapiens, UniProt P07306)
T1 construct: endogenous in cells; host or cells: HepG2
T1 sequence (P07306 1-291): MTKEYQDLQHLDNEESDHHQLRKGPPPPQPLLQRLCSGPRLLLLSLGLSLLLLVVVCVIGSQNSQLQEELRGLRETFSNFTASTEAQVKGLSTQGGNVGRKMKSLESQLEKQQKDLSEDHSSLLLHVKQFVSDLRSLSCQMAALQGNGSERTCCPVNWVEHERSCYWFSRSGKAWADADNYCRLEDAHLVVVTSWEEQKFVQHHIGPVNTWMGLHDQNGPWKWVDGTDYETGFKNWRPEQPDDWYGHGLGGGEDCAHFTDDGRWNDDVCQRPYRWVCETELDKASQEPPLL


What follows are molecules tested against T1, HepG2 cells (which express ASGR1) (assay: Guava HepG2 cell binding screen of anti-ASGR1 mAbs). Conditions: humanized G2D clones; two numbers per cell, their meaning is not given.
Experimental: Additionally, hybridomas producing monoclonal antibodies (mAbs) specific for human ASGR1 were prepared from Balb/C mice immunized with ASGR1-AviHis at a service provider using their propriety protocol. Antibody heavy and light chain sequences were obtained, amplified, and cloned. Clone supernatants containing the expressed mAbs were screened for binding to a human ASGR1-IgG1Fc fusion protein, and those with a positive signal as measured by enzyme linked immunosorbent assay (ELISA) were screened for cell binding on HepG2 cells (which express ASGR1). […] The isolated mAbs were further analyzed for the additional characteristics including, for example, titer, low aggregate content following protein A purification, high titer, lack of cross-blocking of ligand GalNac, calcium sensitivity, and cross-reactivity with rat ASGR1 protein.

Guava HepG2 Screen | Molecule
187/145 | G2D-C (antibody) heavy: EVQLQQSGPELVKPGASVKISCKASGYSFTGYYMHWVKQSHVKSLEWIGRINPNNGATNYNQNFKDKASLTVDKSSSTAYMEFHSLTSEDSAVYYCTSVNFYYWGQGTTLTVSS[… human IgG1 constant region …] light: DIKMTQSPSSMYASLGERVTITCKASQVINSYLSWFQQKPGKSPETLIYRANTLVDGVPSRFSGSGSGQDYSLTISSLEYEDLGIYYCLQYAEFPYTFGGGTKLEIKRTVAAPSVFIFPPSDEQLKSGTASVVCLLNNFYPREAKVQWKVDNALQSGNSQESVTEQDSKDSTYSLSSTLTLSKADYEKHKVYACEVTHQGLSSPVTKSFNRGEC
155/117 | hzG2D-9: humanized G2D clone; VL "grafted into the human germline sequence VKI-L1 with JK4 to generate hzG2D VLa (SEQ ID NO:131)" (antibody) heavy: QVQLVQSGAEVKKPGASVKVSCKASGYTFTGYYMHWVRQAPGQRLEWMGRINPNNGATNYNQNFKDKATITRDTSASTAYMELSSLRSEDTAVYYCTSVNFYYWGQGTTLTVSS[… human IgG1 constant region …] light: DIQMTQSPSSLSASVGDRVTITCKASQVINSYLSWFQQKPGKAPKSLIYRANTLVDGVPSRFSGSGSGTDFTLTISSLQPEDFATYYCLQYAEFPYTFGGGTKVEIKRTVAAPSVFIFPPSDEQLKSGTASVVCLLNNFYPREAKVQWKVDNALQSGNSQESVTEQDSKDSTYSLSSTLTLSKADYEKHKVYACEVTHQGLSSPVTKSFNRGEC
149/63 | hzG2D-10: humanized G2D clone; VL "grafted into the human germline sequence VKI-L1 with JK4 to generate hzG2D VLa (SEQ ID NO:131)" (antibody) heavy: QVQLVQSGAEVKKPGASVKVSCKASGYTFTGYYMHWVRQAPGQRLEWMGRINPNNGATNYNQNFKDRVSLTVDTSASTAYMELSSLRSEDTAVYYCTSVNFYYWGQGTTLTVSS[… human IgG1 constant region …] light: DIQMTQSPSSLSASVGDRVTITCKASQVINSYLSWFQQKPGKAPKSLIYRANTLVDGVPSRFSGSGSGTDFTLTISSLQPEDFATYYCLQYAEFPYTFGGGTKVEIKRTVAAPSVFIFPPSDEQLKSGTASVVCLLNNFYPREAKVQWKVDNALQSGNSQESVTEQDSKDSTYSLSSTLTLSKADYEKHKVYACEVTHQGLSSPVTKSFNRGEC
37/16 | hzG2D-14: humanized G2D clone; VL "grafted into the human germline sequence VKI-L1 with JK4 to generate hzG2D VLa (SEQ ID NO:131)" (antibody) heavy: QVQLVQSGAEVKKPGASVKVSCKASGYSFTGYYMHWVRQAPGQRLEWMGRINPNNGATNYNQNFKDKASLTVDTSASTAYMELSSLRSEDTAVYYCARVNFYYWGQGTTLTVSS[… human IgG1 constant region …] light: DIQMTQSPSSLSASVGDRVTITCKASQVINSYLSWFQQKPGKAPKSLIYRANTLVDGVPSRFSGSGSGTDFTLTISSLQPEDFATYYCLQYAEFPYTFGGGTKVEIKRTVAAPSVFIFPPSDEQLKSGTASVVCLLNNFYPREAKVQWKVDNALQSGNSQESVTEQDSKDSTYSLSSTLTLSKADYEKHKVYACEVTHQGLSSPVTKSFNRGEC
165/108 | hzG2D-16: humanized G2D clone; VL "grafted into the human germline sequence VKI-L1 with JK4 to generate hzG2D VLa (SEQ ID NO:131)" (antibody) heavy: QVQLVQSGAEVKKPGASVKVSCKASGYSFTGYYMHWVRQAPGQRLEWMGRINPNNGATNYNQNFKDKASLTVDTSASTAYMELSSLRSEDTAVYYCTSVNFYYWGQGTTLTVSS[… human IgG1 constant region …] light: DIQMTQSPSSLSASVGDRVTITCKASQVINSYLSWFQQKPGKAPKSLIYRANTLVDGVPSRFSGSGSGTDFTLTISSLQPEDFATYYCLQYAEFPYTFGGGTKVEIKRTVAAPSVFIFPPSDEQLKSGTASVVCLLNNFYPREAKVQWKVDNALQSGNSQESVTEQDSKDSTYSLSSTLTLSKADYEKHKVYACEVTHQGLSSPVTKSFNRGEC
172/119 | hzG2D-15: humanized G2D clone; VL "grafted into the human germline sequence VKI-L1 with JK4 to generate hzG2D VLa (SEQ ID NO:131)" (antibody) heavy: QVQLVQSGAEVKKPGASVKVSCKASGYTFTGYYMHWVRQAPGQRLEWMGRINPNNGATNYNQNFKDKASLTVDTSASTAYMELSSLRSEDTAVYYCTSVNFYYWGQGTTLTVSS[… human IgG1 constant region …] light: DIQMTQSPSSLSASVGDRVTITCKASQVINSYLSWFQQKPGKAPKSLIYRANTLVDGVPSRFSGSGSGTDFTLTISSLQPEDFATYYCLQYAEFPYTFGGGTKVEIKRTVAAPSVFIFPPSDEQLKSGTASVVCLLNNFYPREAKVQWKVDNALQSGNSQESVTEQDSKDSTYSLSSTLTLSKADYEKHKVYACEVTHQGLSSPVTKSFNRGEC
140/83 | hzG2D-13: humanized G2D clone; VL "grafted into the human germline sequence VKI-L1 with JK4 to generate hzG2D VLa (SEQ ID NO:131)" (antibody) heavy: QVQLVQSGAEVKKPGASVKVSCKASGYSFTGYYMHWVRQAPGQRLEWMGRINPNNGATNYNQNFKDRVSLTVDTSASTAYMELSSLRSEDTAVYYCTSVNFYYWGQGTTLTVSS[… human IgG1 constant region …] light: DIQMTQSPSSLSASVGDRVTITCKASQVINSYLSWFQQKPGKAPKSLIYRANTLVDGVPSRFSGSGSGTDFTLTISSLQPEDFATYYCLQYAEFPYTFGGGTKVEIKRTVAAPSVFIFPPSDEQLKSGTASVVCLLNNFYPREAKVQWKVDNALQSGNSQESVTEQDSKDSTYSLSSTLTLSKADYEKHKVYACEVTHQGLSSPVTKSFNRGEC
158/113 | hzG2D-12: humanized G2D clone; VL "grafted into the human germline sequence VKI-L1 with JK4 to generate hzG2D VLa (SEQ ID NO:131)" (antibody) heavy: QVQLVQSGAEVKKPGASVKVSCKASGYSFTGYYMHWVRQAPGQRLEWMGRINPNNGATNYNQNFKDKATITRDTSASTAYMELSSLRSEDTAVYYCTSVNFYYWGQGTTLTVSS[… human IgG1 constant region …] light: DIQMTQSPSSLSASVGDRVTITCKASQVINSYLSWFQQKPGKAPKSLIYRANTLVDGVPSRFSGSGSGTDFTLTISSLQPEDFATYYCLQYAEFPYTFGGGTKVEIKRTVAAPSVFIFPPSDEQLKSGTASVVCLLNNFYPREAKVQWKVDNALQSGNSQESVTEQDSKDSTYSLSSTLTLSKADYEKHKVYACEVTHQGLSSPVTKSFNRGEC
